According to publication PMC12136788:
The other results are listed elsewhere or left out.

T1: UNK ZnF1-3 (human, UniProt Q9C0B0 31-174)
T1 sequence: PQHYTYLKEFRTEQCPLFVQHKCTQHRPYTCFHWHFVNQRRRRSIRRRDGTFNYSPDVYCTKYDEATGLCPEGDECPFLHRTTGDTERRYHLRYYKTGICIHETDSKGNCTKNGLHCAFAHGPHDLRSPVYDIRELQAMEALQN

B1: chr1:180459674:180459675:+_ENSMUSG00000026494_ENSMUST00000161017|mus_mus|FALSE|FALSE (ssRNA)
RNA: GGGAGUUCUACAGUCCGACGAUCGCCUCUCUUUAUUUCCGGCUACCGAAUUCAUGGUGGCUCUUCCAGAGGAAAGGGUCUAAAUGUUCCCACAAGGCUACAUCCAAAAGGUCUGCCAACCCAGACGCGUCCCCCCUCGUGGUACAACAGAGGAUUGAGCAUCA
B2: chrX:71549400:71549401:+_ENSMUSG00000019087_ENSMUST00000019231|mus_hu|mus_mus_mus_hu_False|78_88 (ssRNA)
RNA: GGGAGUUCUACAGUCCGACGAUCGCAGUAGGAAGAGGGAAGCUCUUCAUCCACUGUGUCACAAAACUGGGAAAGCAACAACACGGACACCGUCCCACCCUCAACCCCCCCACUGGCACAGGGUCACACAAUCUGGGUCAAAGACAACAGAGGAUUGAGCAUCA
B3: chr5:77717642:77717643:+_ENSG00000085365_ENST00000538629|hu_mus|FALSE|FALSE (ssRNA)
RNA: GGGAGUUCUACAGUCCGACGAUCGACUGCUCUCGAGGAAUCAACACAAAACCAGGCCAAGCAUCCGAAGAUGUUCAGAAACAGGGUCACUGCAUGGAACAUCCAUAGGUAGUACAUAAGCUUCACCGUCUUCUGGAAUUCUACCAACAGAGGAUUGAGCAUCA
B4: chr16:17428906:17428907:+_ENSMUSG00000022765_ENSMUST00000023449|mus_hu|FALSE|FALSE (ssRNA)
RNA: GGGAGUUCUACAGUCCGACGAUCGCGGGGACAUCUGCCAACAAAAGAGCAAGAUGGCACACUCUAUUUCCCAUUCUAACACUGAUCCUUUCUGGGAGGAUGAAAGAAUCACAGAUAAUGUGCUCAGAGAGUGUGUGUGUGUGUCAACAGAGGAUUGAGCAUCA
B5: chr3:52741720:52741721:+_ENSG00000114902_ENST00000602728|hu_mus|FALSE|FALSE (ssRNA)
RNA: GGGAGUUCUACAGUCCGACGAUCGUAGAUAGGCCAUGGAGGAAGUGUCAGCAAACAGGAGAAAGCAAAUCCGGCCAUAACUAUGUAGACAGUCCACCCAAACUGUUCAGCCACGUACCCGUAGAUAAACCCAACUAUUGCAGACAACAGAGGAUUGAGCAUCA
B6: 56584608_56585569_802_3pUTR_ENSG00000108389_ENST00000323456|human|control|control (ssRNA)
RNA: GGGAGUUCUACAGUCCGACGAUCGCAUUGCGCCAGCCCCACCAGCUGAUCUCUGGCUGGCUGCAGCGGGCGAUGGCAGCCCCAUUGCGCAAGUGUCUAUACACAACCACGGGAAUCCGCUUCCAGGAGCGGAAGGAAGCCACGCAACAGAGGAUUGAGCAUCA
B7: 25701804_25721325_3122_CDS_ENSMUSG00000036333_ENSMUST00000066652|mouse|control|control (ssRNA)
RNA: GGGAGUUCUACAGUCCGACGAUCUGAUAUUCUCUCAUAGAUGGUCUUUAGCGUCAUCUGGUCAGGAAUACCUUCAGUCUCUCCCAGAUAUAGUAUGAGCCAGGACGUCCGGUAUGGCCACUGCUCAGUAAGGUUGAUCCAGCUCAACAGAGGAUUGAGCAUCA
B8: chr14:66974463:66974464:+_ENSMUSG00000022044_ENSMUST00000074523|mus_hu|mus_mus_mus_hu_False|1_28 (ssRNA)
RNA: GGGAGUUCUACAGUCCGACGAUCUUGUAGGACGACUUAUUCAGGGGAUCGGCCAGGAAGCAGGAGCAGAACAAGGACACCAGCGGGAGCUCCUUCAUCUUCUCUUUAUAGGCUGCAAGGGUCAUGUUUCUGGGAUCCUGGUGGCAACAGAGGAUUGAGCAUCA
B9: chr11:18503389:18503390:-_ENSG00000074319_ENST00000251968|hu_hu|hu_hu_hu_mus_True|18_88 (ssRNA)
RNA: GGGAGUUCUACAGUCCGACGAUCAUUUUCCAUUUUCUCCAGAGCAGAACUGAGUUCUUCAUCCUUCUUUUUCAAAAGUUCUAUGUUUUUAUCAACUUCAGCUACUUCUUGAUCUAAACGGGUAACCAUCUCUUCCAGUUUCUGCAACAGAGGAUUGAGCAUCA
B10: chr7:6441565:6441566:+_ENSG00000136238_ENST00000348035|hu_mus|FALSE|FALSE (ssRNA)
RNA: GGGAGUUCUACAGUCCGACGAUCGGUGAUGGGAGUCAGCUUCUUCUCCUUCAGCUUCUCAAUGGUGUCCUUAUCAUCCCUAAGAUCAAGCUUCGUCCCCACGAGGAUGAUAGGAGUAUUGGGACAGUGGUGUCGCACUUCAGGCAACAGAGGAUUGAGCAUCA
B11: chr18:25532265:25532266:-_ENSG00000170558_ENST00000399380|hu_hu|motif|central (ssRNA)
RNA: GGGAGUUCUACAGUCCGACGAUCGGAAUUAAGGGAGCUCAAGGACCCAGCAGUGGAGCCACUGCCUUCAUAGUCAAACACGGACAGGGAGUCAUAUGGUGGAGCUGUGGGGUCAUUGUCAGCCGCUUUAAGGCCCUCAUUAAUCAACAGAGGAUUGAGCAUCA
B12: chr3:33945423:33945424:+_ENSMUSG00000027680_ENSMUST00000167354|mus_hu|FALSE|FALSE (ssRNA)
RNA: GGGAGUUCUACAGUCCGACGAUCGGUAUUUUUUUUGACAGUUUUAUUUUGAUUGACAGGCCGAAGUCGUUCAAAUGUGACUAUUUCAUUGUAAGUAGCGUCACAAGCAGCAUAUUCAAUGACAUAAAAUUCUCCUUUCAUCAUCAACAGAGGAUUGAGCAUCA
B13: 14949008_14949349_647_CDS_ENSMUSG00000021737_ENSMUST00000022256|mouse|control|control (ssRNA)
RNA: GGGAGUUCUACAGUCCGACGAUCGAGAAAGAGCUCUGCUGCCUGUUUGAAGUCACGGAUAGCCACACAAUAUAAGCCCUGGUACACUUUCAGCCUGUUUCGCCUGUCCCAGUCUCCGCCUUCCUCUAUCAGGCUUUUGGCCUUCAACAGAGGAUUGAGCAUCA
B14: chr8:95530139:95530140:-_ENSG00000164944_ENST00000437199|hu_hu|motif|central (ssRNA)
RNA: GGGAGUUCUACAGUCCGACGAUCAACAUCACUGGAAGACUGAACCACCACCAAAAUAAGUAUGCAUGCGUAAUUAUAAGCGGCUGACUUCUUAGAUUUGGAAUCACCCAAGGCUUCUUUGGAAUAGUACUCCAUUAGAGUAAUCAACAGAGGAUUGAGCAUCA
B15: 171897380_171897500_268_CDS_ENSMUSG00000026675_ENSMUST00000027989|mouse|control|control (ssRNA)
RNA: GGGAGUUCUACAGUCCGACGAUCACCCCGGACCACCGACUGCAGGCUGCUGACAUCCAUCUGCACGAUGCUGACUUCGGCGGAGGGGUGAGAGGCCAGCAGGGUAUCUCGAACAGCUCUUGCUUUGCUCAGGUUCCUACACGCCAACAGAGGAUUGAGCAUCA
B16: chr19:59067291:59067292:-_ENSG00000130725_ENST00000253023|hu_hu|FALSE|FALSE (ssRNA)
RNA: GGGAGUUCUACAGUCCGACGAUCUGGGUCGGGGGAGGCAGCGCCGACCUUAAUCACAUGGUGUUAAAAAAAAAAAAAUAACUAGGGGCACGUGGCAGGAAGGGGAGGCAAGGCCAAGGCAGGGGAUUCCCCCACCGGCCGCCCCAACAGAGGAUUGAGCAUCA
B17: 71574628_71575803_532_CDS_ENSMUSG00000053470_ENSMUST00000065509|mouse|control|control (ssRNA)
RNA: GGGAGUUCUACAGUCCGACGAUCUUGAUCUCCAAGAAACCGAACAGAAGUUAUGGCUCCCAAGCCAGCUUUGUCUAGAAGAGAUUUGUACAUUAUUGCAGGCCACUGAAUAACUUGCUCAGGAACUUCAGGUGAUUUUCGUUCCAACAGAGGAUUGAGCAUCA
B18: chr4:144391305:144391306:+_ENSG00000109458_ENST00000262995|hu_mus|FALSE|FALSE (ssRNA)
RNA: GGGAGUUCUACAGUCCGACGAUCCGGUGGAGAGAGAGAGAGAGCGAGCGAGCUAAGAGUAGUAAUCUUGAAUUCCUGCCUAAUUCAUUCAAAAUCACACUAUGCUGCUGACAGUGAACGCCAACUGUUUCAUUAAUUCUAAACCAACAGAGGAUUGAGCAUCA
B19: 29611512_29611714_1436_CDS_ENSMUSG00000038084_ENSMUST00000160597|mouse|control|control (ssRNA)
RNA: GGGAGUUCUACAGUCCGACGAUCGUUAGGAUUCUGCAUGUAAGCUUUGCUGAUACUGAAAAUAGUUUCCUUUGUGUCGGGAGCCAUGCCUGAUGUCACGGUGUUGAUGACACCAGGCAAGUCCACGAGCACCAUCCUCUGCAGCAACAGAGGAUUGAGCAUCA
B20: chr1:54531653:54531654:-_ENSMUSG00000073678_ENSMUST00000097739|mus_mus|FALSE|FALSE (ssRNA)
RNA: GGGAGUUCUACAGUCCGACGAUCACACAGAAGACAAACUCCUUCCAGAGGACAGAGCGUCCUGAAGCCAGCUCUCAUAAACUACCCUCCUGCUAAUUUAUCCACAGUCCCCAACAGUUACUUAGAUAAUCAUUACUCGAUCAACAACAGAGGAUUGAGCAUCA
B21: 33361647_33361767_243_3pUTR_ENSMUSG00000018965_ENSMUST00000019109|mouse|control|control (ssRNA)
RNA: GGGAGUUCUACAGUCCGACGAUCCGCCUGCUCCGCCAGUCGCGCCCGCUGCAGCAGCUGCUCUCGAUCCCCCAUGUCGCUCGCGACUCGGCCUCGCCUCGCACGCCCACACCGCCUGCUCACUCGCUCGCUCGCUCGCCCGCCCAACAGAGGAUUGAGCAUCA
B22: chr7:65705475:65705476:+_ENSG00000169902_ENST00000304842|hu_hu|hu_hu_hu_mus_True|38_108 (ssRNA)
RNA: GGGAGUUCUACAGUCCGACGAUCUCUAUCCGGUGAUGGCACUCCAUGGCAUGCUGGCCCAGGUAAAACACGGUCACAGAACUAAUCACCAGACACGCCAAUAGUAAGUUCUGCUUCAGCUUCCCAACCAUCUUGAUGUGGUUACAACAGAGGAUUGAGCAUCA

What follows are binders tested against T1, UNK ZnF1-3 (assay: nsRBNS (natural sequence RNA bind-n-seq); RBNS binding buffer (assumed for nsRBNS): 25 mM Tris pH 7.5, 150 mM KCl, 3 mM MgCl2, 0.01% Triton X-100, 500 ug/ml BSA, 20 U/ml SUPERase-In, 4 C; UNK is unkempt and MSI1 is Musashi-1; names of the RNAs are library labels; protein concentration not given here; high values mean tight binding).

Binder	binding signal [enrichment R]
B1	1.37
B2	1.2
B3	1.54
B4	1.81
B5	1.7
B6	0.825
B7	0.786
B8	1.87
B9	0.56
B10	0.78
B11	1.08
B12	0.541
B13	0.987
B14	2.05
B15	0.925
B16	2.71
B17	0.828
B18	1.62
B19	0.526
B20	1.98
B21	1.19
B22	0.564
